{
  "source": "paper PMC9911399",
  "about": "“Two distinct binding modes provide the RNA-binding protein RbFox with extraordinary sequence specificity”",
  "binders": {"B1": {"name": "UUACUAG (DNA:RNA)", "RNA": "GGGAGACCGGAAUUCAGAUUGUCCUUACUAGUUAAAUCCCGUCGUAGCCACCA", "DNA 1": "CAATCTGAATTCCGGTCTCCC", "DNA 2": "TGGTGGCTACGACGGGATT"}, "B2": {"name": "CUUGAUG (DNA:RNA)", "RNA": "B1 RNA with U25C, A27U, C28G, U29A, A30U", "DNA 1": "CAATCTGAATTCCGGTCTCCC", "DNA 2": "TGGTGGCTACGACGGGATT"}, "B3": {"name": "AUUUGGC (DNA:RNA)", "RNA": "B1 RNA with U25A, A27U, C28U, U29G, A30G, G31C", "DNA 1": "CAATCTGAATTCCGGTCTCCC", "DNA 2": "TGGTGGCTACGACGGGATT"}, "B4": {"name": "UAAAUGA (DNA:RNA)", "RNA": "B1 RNA with U26A, C28A, A30G, G31A", "DNA 1": "CAATCTGAATTCCGGTCTCCC", "DNA 2": "TGGTGGCTACGACGGGATT"}, "B5": {"name": "AACCAUC (DNA:RNA)", "RNA": "B1 RNA with U25A, U26A, A27C, U29A, A30U, G31C", "DNA 1": "CAATCTGAATTCCGGTCTCCC", "DNA 2": "TGGTGGCTACGACGGGATT"}, "B6": {"name": "UGAACAC (DNA:RNA)", "RNA": "B1 RNA with U26G, C28A, U29C, G31C", "DNA 1": "CAATCTGAATTCCGGTCTCCC", "DNA 2": "TGGTGGCTACGACGGGATT"}, "B7": {"name": "ACCCAAU (DNA:RNA)", "RNA": "B1 RNA with U25A, U26C, A27C, U29A, G31U", "DNA 1": "CAATCTGAATTCCGGTCTCCC", "DNA 2": "TGGTGGCTACGACGGGATT"}, "B8": {"name": "CAGGCGC (DNA:RNA)", "RNA": "GGGAGACCGGAAUUCAGAUUGUCCCAGGCGCUUAAAUCCCGUCGUAGCCACCA", "DNA 1": "CAATCTGAATTCCGGTCTCCC", "DNA 2": "TGGTGGCTACGACGGGATT"}, "B9": {"name": "AUCCAUA (DNA:RNA)", "RNA": "B1 RNA with U25A, A27C, U29A, A30U, G31A", "DNA 1": "CAATCTGAATTCCGGTCTCCC", "DNA 2": "TGGTGGCTACGACGGGATT"}, "B10": {"name": "AACAUAC (DNA:RNA)", "RNA": "B8 RNA with C25A, G27C, G28A, C29U, G30A", "DNA 1": "CAATCTGAATTCCGGTCTCCC", "DNA 2": "TGGTGGCTACGACGGGATT"}, "B11": {"name": "CAUUUGA (DNA:RNA)", "RNA": "B8 RNA with G27U, G28U, C29U, C31A", "DNA 1": "CAATCTGAATTCCGGTCTCCC", "DNA 2": "TGGTGGCTACGACGGGATT"}, "B12": {"name": "CGCCCUG (DNA:RNA)", "RNA": "B8 RNA with A26G, G27C, G28C, G30U, C31G", "DNA 1": "CAATCTGAATTCCGGTCTCCC", "DNA 2": "TGGTGGCTACGACGGGATT"}, "B13": {"name": "GUCAGCG (DNA:RNA)", "RNA": "B1 RNA with U25G, A27C, C28A, U29G, A30C", "DNA 1": "CAATCTGAATTCCGGTCTCCC", "DNA 2": "TGGTGGCTACGACGGGATT"}, "B14": {"name": "UUCUCAA (DNA:RNA)", "RNA": "B1 RNA with A27C, C28U, U29C, G31A", "DNA 1": "CAATCTGAATTCCGGTCTCCC", "DNA 2": "TGGTGGCTACGACGGGATT"}, "B15": {"name": "CGUGUUC (DNA:RNA)", "RNA": "B8 RNA with A26G, G27U, C29U, G30U", "DNA 1": "CAATCTGAATTCCGGTCTCCC", "DNA 2": "TGGTGGCTACGACGGGATT"}, "B16": {"name": "AGAAUCG (DNA:RNA)", "RNA": "B1 RNA with U25A, U26G, C28A, A30C", "DNA 1": "CAATCTGAATTCCGGTCTCCC", "DNA 2": "TGGTGGCTACGACGGGATT"}, "B17": {"name": "GAACCGG (DNA:RNA)", "RNA": "B8 RNA with C25G, G27A, G28C, C31G", "DNA 1": "CAATCTGAATTCCGGTCTCCC", "DNA 2": "TGGTGGCTACGACGGGATT"}, "B18": {"name": "GUCGCGU (DNA:RNA)", "RNA": "B8 RNA with C25G, A26U, G27C, C31U", "DNA 1": "CAATCTGAATTCCGGTCTCCC", "DNA 2": "TGGTGGCTACGACGGGATT"}, "B19": {"name": "GGUCCAU (DNA:RNA)", "RNA": "B1 RNA with U25G, U26G, A27U, U29C, G31U", "DNA 1": "CAATCTGAATTCCGGTCTCCC", "DNA 2": "TGGTGGCTACGACGGGATT"}, "B20": {"name": "CGGUACG (DNA:RNA)", "RNA": "B8 RNA with A26G, G28U, C29A, G30C, C31G", "DNA 1": "CAATCTGAATTCCGGTCTCCC", "DNA 2": "TGGTGGCTACGACGGGATT"}},
  "note": "Positions count from the first letter of the chain named. Some of the results follow.",
  "data": [
    {"target": "T1, RBFOX1 RRM RbFoxmut (Fox-RRM*) (Homo sapiens, UniProt Q9NWB1 109-208, R118D;E147R;N151S;E152T)", "T1 sequence": "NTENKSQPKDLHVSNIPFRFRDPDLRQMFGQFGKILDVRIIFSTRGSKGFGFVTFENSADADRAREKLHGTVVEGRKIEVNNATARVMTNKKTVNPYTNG", "assay": "EMSA; HiTS-Eq, 1 nM pool, 10 min; buffer printed only for the single-RNA assays: 10 mM Tris pH 7.5, 150 mM NaCl, 3.4 mM EDTA, 0.001% NP-40, 30 C", "conditions": "tags: His6 N-terminal (pET28a); label: 5' 32P", "in_short": "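A pool of RNA with 7 randomized nucleotides, 5′-radiolabelled and with DNA-annealed flanks, was equilibrated at 1 nM for 10 min in 50 µL with purified RbFox RRM, wild type or mutant, across increasing protein concentrations. Free RNA was separated by 8% native PAGE, excised, reverse-transcribed, barcoded by PCR and sequenced. Relative association constants were obtained from read-count changes of each RNA species versus the control reaction and normalised to the cognate motif.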", "values": [
      {"binder": "B1", "binding signal": "0.1 KA relative to UGCAUGU"},
      {"binder": "B2", "binding signal": "0.144 KA relative to UGCAUGU"},
      {"binder": "B3", "binding signal": "0.115 KA relative to UGCAUGU"},
      {"binder": "B4", "binding signal": "0.0756 KA relative to UGCAUGU"},
      {"binder": "B5", "binding signal": "0.041 KA relative to UGCAUGU"},
      {"binder": "B6", "binding signal": "0.1 KA relative to UGCAUGU"},
      {"binder": "B7", "binding signal": "0.0571 KA relative to UGCAUGU"},
      {"binder": "B8", "binding signal": "0.0775 KA relative to UGCAUGU"},
      {"binder": "B9", "binding signal": "0.117 KA relative to UGCAUGU"},
      {"binder": "B10", "binding signal": "0.0881 KA relative to UGCAUGU"},
      {"binder": "B11", "binding signal": "0.0927 KA relative to UGCAUGU"},
      {"binder": "B12", "binding signal": "0.0947 KA relative to UGCAUGU"},
      {"binder": "B13", "binding signal": "0.138 KA relative to UGCAUGU"},
      {"binder": "B14", "binding signal": "0.0802 KA relative to UGCAUGU"},
      {"binder": "B15", "binding signal": "0.107 KA relative to UGCAUGU"},
      {"binder": "B16", "binding signal": "0.28 KA relative to UGCAUGU"},
      {"binder": "B17", "binding signal": "0.0476 KA relative to UGCAUGU"},
      {"binder": "B18", "binding signal": "0.142 KA relative to UGCAUGU"},
      {"binder": "B19", "binding signal": "0.0753 KA relative to UGCAUGU"},
      {"binder": "B20", "binding signal": "0.24 KA relative to UGCAUGU"}
    ]}
  ]
}
